Assay results as given in PubChem BioAssay AID1347417 (National Center for Advancing Translational Sciences (NCATS), 2020).
Hit rate of the full screen: of about 120,000 compounds, about 5,300 (4.4%) were called active. Inconclusive means that the source gave no clear call. Such entries were picked first, then a sample of the others. Calls come from the whole dose curve; as a rule, active = well fitted inhibition curve with a large enough effect; inconclusive = small, poorly fitted or top-dose-only effect; inactive = no such curve, though single readings can be large or run the other way. Where the call is inconclusive, the potency comes from a doubtful curve fit.

Test: qHTS Primary assay for Inhibitors of Plasmodium falciparum Dd2 growth in vitro; note: nearly all actives have a fitted effect of over 65% in size
Details: P. falciparum Dd2 growth, SYBR Green, 72 h; series mostly up to 28.9 µM
Procedure, shortened: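 Readout: SYBR Green fluorescence, 485 nm excitation, 535 nm emission, after ~16 h lysis at 37C. Before that, Dd2-infected red cells (2.5% hematocrit) grew 72 h with compound, 29 uM top final concentration.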
Potency is the fitted concentration of half-maximal effect; tags give direction and shape of the fitted curve.

| Structure (SMILES) | Potency |
| --- | --- |
| CCOC(=O)c1cc(C)n(CC2CCC(C(=O)Nc3ccc(Cl)cc3)CC2)c1C (configuration not stated) | inconclusive: 11.2 µM [inhibitor, single point] |
| C[C@@H](NC(=O)C1=C[C@@H](NC(=O)Nc2ccc(OC(F)(F)F)cc2)[C@@H](O)[C@H](O)C1)C(N)=O | inactive |
| O=C(N[C@@H]1CN(C(=O)Nc2cccc(C(F)(F)F)c2)CCC[C@H]1O)c1ccc(OCc2ccccc2)cc1 | active: 7.08 µM |
| Clc1ccc(CN2CCC3(CC2)CC(c2ccccc2)=NO3)cc1 | inactive |
| CCc1ccccc1NC(=O)CN1C(=O)NC2(CCC(C)CC2)C1=O (configuration not stated) | inactive |
| CNC(=O)[C@@H]1C[C@H](Oc2ccccc2)CN1C(=O)c1cc2ccccc2[nH]1 | inconclusive: 0.398 µM [inhibitor, full curve, poor fit] |
| O=C(Nc1cccc(C(=O)N2CCN(c3ccc(Cl)cc3)CC2)c1)c1nsc2ccccc12 | inconclusive: 10 µM [inhibitor, single point] |
| N#Cc1cccnc1N1CCN(Cc2ccccc2F)C(CCO)C1 (configuration not stated) | inconclusive: 10 µM [inhibitor, partial curve, poor fit] |
| O=C(NCc1cccnc1)C1CCN(Cc2cc3ccccc3n2Cc2cccc(Cl)c2)CC1 | inconclusive: 10 µM [inhibitor, single point] |
| Cc1nc2cccnc2n1CC1CCCN(S(=O)(=O)c2ccc3c(c2)CCCC3)C1 (configuration not stated) | inconclusive: 2.24 µM [inhibitor, partial curve, poor fit] |
| O=c1c2c3c(nn2ccn1Cc1cccc(C(F)(F)F)c1)CCCC3 | inconclusive: 5.62 µM [inhibitor, partial curve] |
| CC1(C)[C@H](Cc2cc(CN3CCCCC3)on2)C[C@@H]1NC(=O)c1ccco1 | inconclusive: 5.01 µM [inhibitor, partial curve, poor fit] |
| Cc1ccc(NC(=O)c2oc3ccccc3c2NC(=O)c2cc3ccccc3o2)cc1 | inconclusive: 17.8 µM [inhibitor, single point] |
| OC[C@@H]1CNC[C@H]1C1CCN(Cc2ccc(Cl)c(F)c2)CC1 | inconclusive: 17.8 µM [inhibitor, partial curve, poor fit] |
| CCOc1ccccc1NC(=O)Cn1cnc2onc(-c3ccc(F)cc3)c2c1=O | inconclusive: 20 µM [inhibitor, single point] |
| CCOc1cccc(CC(=O)N2CCc3c([nH]c4ccccc34)C2c2ccc(F)cc2)c1OCC (configuration not stated) | inconclusive: 17.8 µM [inhibitor, single point] |
| Cc1ccsc1-c1nc(CN(C)Cc2noc(C(C)C)n2)c(C)o1 | inactive |
| Cc1cc(N2CCCCC2)nc2ccc(NC(=O)/C=C/c3ccccc3OC(C)C)cc12 | active: 2.82 µM |
| CCC(Oc1ccccc1)C(=O)Nc1ccc2oc(-c3ccc(OC)cc3)nc2c1 (configuration not stated) | inactive |
| O=C(Cc1cccc(F)c1)NC1CCN(c2cc(-c3ccc(F)cc3)[nH]n2)C1 (configuration not stated) | active: 6.31 µM |
| CCc1ccc2oc(-c3cccc(NC(=O)c4ccc(N5CCC(C)CC5)c([N+](=O)[O-])c4)c3)nc2c1 | active: 7.94 µM |

| Structure (SMILES) | Potency |
| --- | --- |
| COc1cccc(NC(=O)Cn2cc(S(=O)(=O)N3CCCC3)c(S(=O)(=O)N3CCCC3)c2)c1 | inconclusive: 10 µM [inhibitor, single point] |
| CCOc1ccccc1CNC(=O)c1cc2cc(S(=O)(=O)N3CCCCC3)ccc2n1C | inconclusive: 17.8 µM [inhibitor, single point] |
| CC(C)(C)c1nc(C(=O)NCc2cccnc2)n2ccncc12 | inconclusive: 10 µM [inhibitor, single point] |
| COc1ccc(-n2nc(C3CCCN(C(=O)c4ccccc4C)C3)[nH]c2=O)cc1 (configuration not stated) | inconclusive: 12.6 µM [inhibitor, partial curve, poor fit] |
| CCCNC(=O)C[C@@H]1CCN(S(=O)(=O)c2c(C)noc2C)C[C@@H]1CC | inactive |
| CCOc1ccc(NS(=O)(=O)c2cc(Br)cc3c2N(C(=O)C2CC2)CC3)cc1 | inactive |
| CCC(=O)N1CCc2cc(Br)cc(S(=O)(=O)N3CCCC(C(=O)Nc4cccc(Cl)c4C)C3)c21 (configuration not stated) | inconclusive: 6.31 µM [inhibitor, partial curve, poor fit] |
| CCOc1ccc(CC(=O)Nc2c(C(=O)c3ccc(C)cc3)oc3ccccc23)cc1OCC | inconclusive: 17.8 µM [inhibitor, single point] |
| CCc1ccccc1NC(=O)c1ccc2nc(CCc3ccccc3)oc2c1 | inconclusive: 17.8 µM [inhibitor, single point] |
| O=C(COc1ccc(Cl)cc1Cl)N1CCC(N2CCOC2=O)CC1 | inactive |
| O=[S+]1([O-])NC2(CCN(Cc3cccs3)C2)COc2ccncc21 (configuration not stated) | inactive |
| COc1ccc(CN2Cc3cc(NC(=O)c4ccc5c(c4)OCO5)ccc3OC(C)C2=O)cc1 (configuration not stated) | inactive |
| COc1ccc(-c2cc(C(=O)NCc3ccc(F)cc3)c3c(-c4ccc(F)cc4)[nH]nc3n2)cc1OC | inconclusive: 14.1 µM [inhibitor, single point] |
| COc1ccc(C(=O)N2C(C(=O)NCC(C)C)COC23CCN(C(=O)C2CCC2)CC3)cc1 (configuration not stated) | inconclusive: 0.224 µM [inhibitor, full curve] |
| CC1=C[C@@H](CNC(=O)CC(C)(C)CC(=O)O)[C@H](C(C)C)C[C@H]1Cc1nc2ncccc2[nH]1 | inactive |
| CCOC(=O)c1cccc(NC(=O)c2ccc3c(c2)N(CC)C2CCCCN2C3=O)c1 (configuration not stated) | inactive |
| O=C1[C@@H]2C[C@@H](CN2Cc2ccc(Cl)cc2)Oc2ccccc2N1Cc1ccccc1 | inconclusive: 31.6 µM [inhibitor, single point] |
| COc1ccc(OC)c(-c2nc(CN3CCCC(C(C)(C)O)C3)c(C)o2)c1 (configuration not stated) | inactive |
| O=C(c1ccncc1)N1CCCC(CCc2ccc(F)cc2)C1 (configuration not stated) | inactive |
| O=C(N1CCN(c2ccccc2)CC1)C1(CCO)CC12CCOCC2 (configuration not stated) | inactive |
| COc1ccc(-c2ccc3ncc(Nc4ccc(CCO)cc4)n3n2)cn1 | inconclusive: 5.62 µM [inhibitor, single point] |
